Measurements as given in patent US20190055314A1 (ADAGENE, published 2019).

Experiments:
Hu_F72A = target: T1, Hu_F72A (human, UniProt Q07011 18-255); experiment: flow cytometry, HEK293F
T1 construct: On HEK293F; also called human CD137 F72A

Hu_F92A = target: T2, Hu_F92A (human, UniProt Q07011 18-255); experiment: flow cytometry, HEK293F
T2 construct: On HEK293F; also called human CD137 F92A

Hu_P32A = target: T3, Hu_P32A (human, UniProt Q07011 18-255); experiment: flow cytometry, HEK293F
T3 construct: On HEK293F; also called human CD137 P32A

Hu_T35A = target: T4, Hu_T35A (human, UniProt Q07011 18-255); experiment: flow cytometry, HEK293F
T4 construct: On HEK293F; also called human CD137 T35A

Hu_N83A = target: T5, Hu_N83A (human, UniProt Q07011 18-255); experiment: flow cytometry, HEK293F
T5 construct: On HEK293F; also called human CD137 N83A

Hu_F53A = target: T6, Hu_F53A (human, UniProt Q07011 18-255); experiment: flow cytometry, HEK293F
T6 construct: On HEK293F; also called human CD137 F53A

Hu_P49A = target: T7, Hu_P49A (human, UniProt Q07011 18-255); experiment: flow cytometry, HEK293F
T7 construct: On HEK293F; also called human CD137 P49A

Hu_F36A = target: T8, Hu_F36A (human, UniProt Q07011 18-255); experiment: flow cytometry, HEK293F
T8 construct: On HEK293F; also called human CD137 F36A

Hu_CRD2-CRD3 = target: T9, Hu_CRD2-CRD3 (human, UniProt Q07011 46-118, limits assumed); experiment: flow cytometry, yeast display [Cont.]
T9 construct: also called two CRD units (CRD2-CRD3) of human CD137

Hu_CRD3 = target: T10, Hu_CRD3 (human, limits assumed); experiment: flow cytometry, yeast display [Cont.]
T10 construct: also called human CD137 CRD3
T10 chain: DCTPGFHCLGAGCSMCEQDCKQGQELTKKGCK

Hu_CRD1-CRD2 = target: T11, Hu_CRD1-CRD2 (human, UniProt Q07011 24-86, limits assumed); experiment: flow cytometry, yeast display [Cont.]
T11 construct: also called two CRD units (CRD1-CRD2) of human CD137

Hu_CRD4 = target: T12, Hu_CRD4 (human, UniProt Q07011 119-159, limits assumed); experiment: flow cytometry, yeast display [Cont.]
T12 construct: also called human CD137 CRD4
T12 chain: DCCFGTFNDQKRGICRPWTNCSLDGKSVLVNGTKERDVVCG

Hu_CRD3-CRD4 = target: T13, Hu_CRD3-CRD4 (human, UniProt Q07011 87-159, limits assumed); experiment: flow cytometry, yeast display [Cont.]
T13 construct: also called two CRD units (CRD3-CRD4) of human CD137

Hu_CRD1-CRD2-CRD3 = target: T14, Hu_CRD1-CRD2-CRD3 (human, UniProt Q07011 24-118, limits assumed); experiment: flow cytometry, yeast display [Cont.]
T14 construct: also called three CRD units (CRD1-CRD2-CRD3) of human CD137

Hu_CRD2-CRD3-CRD4 = target: T15, Hu_CRD2-CRD3-CRD4 (human, UniProt Q07011 46-159, limits assumed); experiment: flow cytometry, yeast display [Cont.]
T15 construct: also called three CRD units (CRD2-CRD3-CRD4) of human CD137

Sequence of Hu_F36A (Q07011 18-255 F36A): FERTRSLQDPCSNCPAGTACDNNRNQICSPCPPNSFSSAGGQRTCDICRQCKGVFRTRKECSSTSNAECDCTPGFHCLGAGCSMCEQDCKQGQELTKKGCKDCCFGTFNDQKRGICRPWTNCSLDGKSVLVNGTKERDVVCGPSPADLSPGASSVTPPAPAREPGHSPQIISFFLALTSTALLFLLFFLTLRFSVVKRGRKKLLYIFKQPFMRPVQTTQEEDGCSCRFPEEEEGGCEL
Sequence of Hu_P49A (Q07011 18-255 P49A): as the sequence (Q07011 18-255 F36A) above, with A19F, P32A counted along it
Sequence of Hu_F72A (Q07011 18-255 F72A): as the sequence (Q07011 18-255 F36A) above, with A19F, F55A counted along it
Sequence of Hu_N83A (Q07011 18-255 N83A): as the sequence (Q07011 18-255 F36A) above, with A19F, N66A counted along it
Sequence of Hu_F53A (Q07011 18-255 F53A): as the sequence (Q07011 18-255 F36A) above, with A19F, F36A counted along it
Sequence of Hu_F92A (Q07011 18-255 F92A): as the sequence (Q07011 18-255 F36A) above, with A19F, F75A counted along it
Sequence of Hu_P32A (Q07011 18-255 P32A): as the sequence (Q07011 18-255 F36A) above, with P15A, A19F counted along it
Sequence of Hu_T35A (Q07011 18-255 T35A): as the sequence (Q07011 18-255 F36A) above, with T18A, A19F counted along it

- binding result (Hu_F72A): no binding
- binding result (Hu_F92A): no binding
- binding result (Hu_P32A): no binding
- binding result (Hu_T35A): no binding
- binding result (Hu_N83A): no binding
- binding result (Hu_F53A): no binding
- binding result (Hu_P49A): no binding
- binding result (Hu_F36A): no binding
- % in upper right quadrant (Hu_CRD2-CRD3): 0.23%
- Mean (Hu_CRD2-CRD3): 11500
- % in upper right quadrant (Hu_CRD3): 0.27%
- Mean (Hu_CRD3): 14200
- % in upper right quadrant (Hu_CRD1-CRD2): 0.22%
- Mean (Hu_CRD1-CRD2): 21900
- % in upper right quadrant (Hu_CRD4): 0.12%
- Mean (Hu_CRD4): 9510
- % in upper right quadrant (Hu_CRD3-CRD4): 0.27%
- Mean (Hu_CRD3-CRD4): 23700
- % in upper right quadrant (Hu_CRD1-CRD2-CRD3): 27.3%
- Mean (Hu_CRD1-CRD2-CRD3): 3680
- % in upper right quadrant (Hu_CRD2-CRD3-CRD4): 0.39%
- Mean (Hu_CRD2-CRD3-CRD4): 10500
B1: human CD137 ligand (ligand)
chain: not shown
modifications: biotinylated in Example 6
notes: also called HuCD137L; biotinylated CD137L
